Laboratory results: PubChem BioAssay AID588342 (National Center for Advancing Translational Sciences (NCATS), 2011)
The campaign covered roughly 360,000 compounds. About 25,000 (6.9%) were called active. The inconclusive results got no clear call from the source; some entries with a clear call stand among them for comparison. The call rests on the fitted dose curve; in most records, active means well fitted inhibition curve with a large enough effect; inconclusive means small, poorly fitted or top-dose-only effect; inactive means flat fitted curve, though single readings scatter. Potencies of inconclusive entries are doubtful fits and often do not repeat.

Target: Luciferin 4-monooxygenase (Photinus pyralis) (UniProt P08659)
Chain of UniProt P08659 (P08659 whole entry, looked up): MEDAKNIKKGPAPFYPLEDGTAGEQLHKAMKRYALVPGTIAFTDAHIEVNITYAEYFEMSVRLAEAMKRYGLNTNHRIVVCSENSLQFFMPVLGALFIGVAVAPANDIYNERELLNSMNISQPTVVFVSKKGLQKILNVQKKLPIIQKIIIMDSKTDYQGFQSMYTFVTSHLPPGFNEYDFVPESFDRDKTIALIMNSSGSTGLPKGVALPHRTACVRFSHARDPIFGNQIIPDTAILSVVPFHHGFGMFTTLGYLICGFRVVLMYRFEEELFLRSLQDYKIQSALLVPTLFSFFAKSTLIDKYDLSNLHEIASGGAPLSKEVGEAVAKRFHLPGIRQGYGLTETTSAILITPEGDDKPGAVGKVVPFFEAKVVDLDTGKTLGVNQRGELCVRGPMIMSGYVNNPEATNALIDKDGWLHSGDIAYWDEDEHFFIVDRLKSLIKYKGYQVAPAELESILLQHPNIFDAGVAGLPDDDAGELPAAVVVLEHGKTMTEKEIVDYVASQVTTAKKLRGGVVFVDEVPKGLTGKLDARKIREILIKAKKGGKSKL
Assay: qHTS profiling assay for firefly luciferase inhibitor/activator using purifed enzyme and Km concentrations of substrates (counterscreen for miR-21 project); further: nearly all actives have a fitted effect of over 55% in size;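 on activity change, negative = inhibition: plate controls were vehicle for no effect and reference inhibitor for full effect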
Conditions: purified FLuc, luminescence inhibition; series mostly up to 57.5 µM; activity change, negative = inhibition: at the top concentration
Summary of the method: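 Purified P. pyralis luciferase (10nM final) with 10uM D-luciferin and 10uM ATP (Km levels) in 50mM Tris acetate pH 7.5, 10mM Mg acetate, 0.01% Tween-20, 0.05% BSA; qHTS 6-point titration, ~60 µM downward; luminescence read.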
Potency means the concentration at half of the fitted maximal effect; tags describe the fitted curve by direction and shape.

Compound	activity change, negative = inhibition	Potency
CCOc1ccc(S(=O)(=O)N2CCN(C(=O)c3cc(C4CC4)nn3-c3ccccc3)CC2)cc1	inactive: 1.47%	–
CCc1ccc(/C=C2/SC(=S)N(CCC(=O)Nc3cccc(C(=O)O)c3)C2=O)cc1	–	active: 2.13 µM
Nc1c(-c2ccccc2)c(CSc2nc3ccccc3[nH]2)nn1-c1ccc(C(=O)O)cc1	–	inconclusive: 23.9 µM [inhibitor, partial curve, poor fit]
CC(/C=C1\SC(=S)N(c2ccc(C(=O)O)cc2)C1=O)=C\c1ccccc1	–	inconclusive: 23.9 µM [inhibitor, single point]
Cc1ccc(-c2nc3sccn3c2Nc2ccccc2C)cc1	–	inconclusive: 30.1 µM [inhibitor, partial curve, poor fit]
Cc1ccc(C)c(N=Nc2nc3ccccc3n2C)c1	–	active: 0.953 µM
CCC(=O)Nc1ccc(N2CCOCC2)c(S(=O)(=O)Nc2ccc(Cl)cc2)c1	–	inconclusive: 30.1 µM [inhibitor, partial curve, poor fit]
CC1=CC(C)(C)N2C(=O)C(=Nc3ccc(O)cc3)c3cccc1c32	–	inconclusive: 37.9 µM [inhibitor, partial curve, poor fit]
N#Cc1c(-c2ccccc2)cc(-c2ccccc2)nc1SCC(=O)NCC(=O)O	–	inconclusive: 21.3 µM [inhibitor, partial curve, poor fit]
CC(C)(C)C1CCc2c(sc(NC(=O)c3cccc(Cl)c3)c2C(N)=O)C1 (stereo not given)	–	inconclusive: 3.38 µM [inhibitor, full curve]
COc1ccc(/C=N/N2C(=O)CSC2=S)cc1	–	inconclusive: 12 µM [inhibitor, partial curve, poor fit]
O=C(OCC(=O)C12CC3CC(CC(C3)C1)C2)c1ccc(CO)cc1	–	inconclusive: 3.01 µM [inhibitor, partial curve, poor fit]
O=C(Nc1cccnc1)c1cc(-c2ccc(Br)cc2)nc2ccccc12	–	active: 16.9 µM
Cc1ccc(C)c(-c2cc(C(=O)Nc3sc(C)c(C)c3C(N)=O)c3ccccc3n2)c1	inactive: -15.1%	–
Cc1cccc(-n2ccnc2SCC(=O)Nc2nccs2)c1	–	inconclusive: 19 µM [inhibitor, partial curve]
Cc1cccc(/C(N)=N/OC(=O)c2cccnc2)c1	–	active: 9.53 µM
COc1ccc(NC(=O)COc2ccc(/C=N/n3c(C)nnc3C)cc2OC)cc1	–	inconclusive: 21.3 µM [inhibitor, single point]
O=c1oc2c(CN3CCOCC3)c(O)ccc2cc1-c1ccc(Cl)cc1	–	inconclusive: 10.7 µM [inhibitor, partial curve]
COC(=O)/C=C1\SC(=NC(=O)c2ccc(C)cc2)NC1=O	–	inconclusive: 23.9 µM [inhibitor, single point]
Cc1ccc(C(=O)Nc2ccccc2C(=O)Nc2ccccn2)cc1Cl	–	active: 5.36 µM
O=[N+]([O-])c1ccc(SCCc2ccccn2)cc1	–	inconclusive: 37.9 µM [inhibitor, single point]
Cc1ccc(CCNC(=O)Cn2cccc2)cc1	inactive: 1.92%	–
CCOc1ccc(CCNC(=O)Cn2nc(CC)n3c(cc4sc(CC)cc43)c2=O)cc1OCC	inactive: -5.54%	–
CCn1nnnc1NC(=O)c1cccc(OC)c1	–	inconclusive: 21.3 µM [inhibitor, partial curve]

Compound	activity change, negative = inhibition	Potency
O=C(NNc1ccc([N+](=O)[O-])cc1[N+](=O)[O-])c1ccco1	–	inconclusive: 30.1 µM [inhibitor, single point]
O=C(O)Cc1ccc2ocnc2c1	inactive: 6.31%	–
CC(C)OC(=O)c1sc2nc(-c3ccccc3)ccc2c1N	–	active: 0.301 µM
CCc1ccc(/C=C/C(=O)c2ccc(S(=O)(=O)N(C)C)cc2)cc1	inactive: -9.65%	–
COc1ccc(CN(C)C(=O)C2CCN(C(=O)Nc3ccccc3)CC2)cc1	inactive: 3.14%	–
Cc1ccc(NC(=S)N(Cc2cccc(Br)c2)CC2CCC(C(=O)O)CC2)cc1Cl (stereo not given)	–	inconclusive: 37.9 µM [inhibitor, partial curve, poor fit]
c1ccc(-c2cc(-c3ccccc3)[nH]n2)cc1	–	active: 7.57 µM
Cc1sc(NC(=O)c2ccco2)c(CN2CCN(c3ccc(F)cc3)CC2)c1C	–	inconclusive: 37.9 µM [inhibitor, partial curve, poor fit]
CCOc1cc(CNC(=O)c2ccc(C)c(NC(=O)c3nsc4ccccc34)c2)ccc1OC	–	inconclusive: 37.9 µM [inhibitor, partial curve, poor fit]
Cc1cccc(C)c1OCC(=O)N/N=C/c1ccc2c(c1)OCO2	–	inconclusive: 26.9 µM [inhibitor, single point]
O=C(NCc1cccs1)C1CCCN1C(=O)Nc1ccccc1Cl (stereo not given)	inactive: -0.738%	–
CCCCCN(C(=O)CCC(=O)OCCOc1ccc(OCC)cc1)c1c(N)n(CCCC)c(=O)[nH]c1=O	inactive: -2.31%	–
O=C(/C=C/c1ccccc1Cl)N1CCCN(C(=O)/C=C/c2ccccc2Cl)CC1	–	active: 19 µM
Cc1ccc(-n2c(C)cc(C(=O)Cn3nc(C(=O)O)c4ccccc4c3=O)c2C)cc1	–	active: 5.36 µM
COc1ccc(OCc2n[nH]c(=S)n2N)cc1	–	inconclusive: 23.9 µM [inhibitor, partial curve, poor fit]
CCN(CC)S(=O)(=O)c1ccc(NC(=O)CCc2c(C)nc3cc(-c4ccc(Cl)cc4)nn3c2C)cc1	–	inconclusive: 5.36 µM [inhibitor, full curve]
O=C(O)c1ccc(N=c2oc3cc(O)ccc3cc2C(=O)NCc2ccccc2)cc1	–	inconclusive: 23.9 µM [inhibitor, partial curve, poor fit]
COc1cc(OC)cc(C(=O)Nc2ncn[nH]2)c1	inactive: 9.3%	–
O=C(N/N=C/c1ccccc1O)C1SCCCS1	–	inconclusive: 23.9 µM [inhibitor, single point]
COc1cc(/C=N/NC(=O)c2ccc(COc3ccccc3Cl)o2)cc(Br)c1O	–	inconclusive: 21.3 µM [inhibitor, partial curve, poor fit]
CCOC(=O)c1sc(-c2ccc(C(F)(F)F)cc2)nc1O	–	inconclusive: 37.9 µM [inhibitor, single point]
COc1ccc(Cl)cc1NC(=O)CSc1ccc(-c2sc(C)nc2C)nn1	–	inconclusive: 9.53 µM [inhibitor, partial curve, poor fit]
CCCCSc1nnc(-c2ccc(C)cc2)n1C	–	inconclusive: 16.9 µM [inhibitor, partial curve]
O=C(Nc1ccccc1)N1CCN(Cc2ccccc2)CC1	–	inconclusive: 19 µM [inhibitor, partial curve]

Compound	activity change, negative = inhibition	Potency
Cc1cc(SCC(=O)c2cccc([N+](=O)[O-])c2)nc(=O)[nH]1	–	inconclusive: 26.9 µM [inhibitor, single point]
CC(C)(C)c1cc(-c2ccccc2)no1	–	inconclusive: 23.9 µM [inhibitor, single point]
Cc1ccc(SCCC(=O)NC(C(C)C)C(C)C)cc1	inactive: 0.134%	–
O=C(NC(=S)Nc1cccc(CO)c1)c1ccc(-c2ccccc2)cc1	–	inconclusive: 16.9 µM [inhibitor, partial curve]
NC(=O)CSc1nc(-c2ccccc2Cl)ns1	–	inconclusive: 26.9 µM [inhibitor, single point]
Cn1cnnc1SCc1ccc(C(=O)N/N=C(\CCC(=O)O)c2ccc(C(C)(C)C)cc2)cc1	–	inconclusive: 26.9 µM [inhibitor, partial curve, poor fit]
COc1ccc(C(=O)Nc2nc(C)c(C)s2)cc1OC	–	active: 13.5 µM
COc1ccc(-c2[nH]c3ccccc3c2SCCNC(=O)c2ccccc2)cc1	inactive: -8.03%	–
COc1ccc(-n2ccn(Cc3ccccc3Cl)c(=O)c2=O)cc1OC	inactive: -0.903%	–
CCCn1c(CCC(=O)Nc2cc(Cl)c(OC)cc2OC)nc2cccnc21	inactive: 1.76%	–
CCn1nc(-c2ccccc2)c(-c2ccccc2)c(C(=O)Nc2nc(C)c(C(=O)N(C)C)s2)c1=O	–	inconclusive: 2.69 µM [inhibitor, full curve]
c1ccc2sc(SCSc3nc4ccccc4s3)nc2c1	–	inconclusive: 21.3 µM [inhibitor, partial curve]
O=C(c1cc(-c2ccccc2)nc2ccccc12)N1CCCC1	–	inconclusive: 23.9 µM [inhibitor, single point]
O=C(Cn1c(=O)n(-c2ccccc2Cl)c(=O)c2sc3ccccc3c21)N1CCCC1	inactive: -4.48%	–
Cc1c(C(=O)Nc2ccc(N3CCOCC3)cc2)oc2ccccc12	–	active: 1.9 µM
COc1ccc(C2CC(c3ccccc3)=NN2c2ccccc2)c(C(=O)O)c1OC (stereo not given)	–	inconclusive: 23.9 µM [inhibitor, partial curve, poor fit]
Cc1cc(NC(=O)CSc2nc(Cc3ccccc3)c(C)[nH]2)no1	–	inconclusive: 21.3 µM [inhibitor, partial curve, poor fit]
CCOc1ccc(-c2nn(-c3ccccc3)cc2/C=C2\SC(=S)N(C3CCS(=O)(=O)C3)C2=O)cc1 (stereo not given)	–	inconclusive: 8.49 µM [inhibitor, partial curve, poor fit]
CC(C)(C)c1ccc(NC(=O)c2cc[n+]([O-])cc2)cc1	–	inconclusive: 23.9 µM [inhibitor, partial curve, poor fit]
CC(C)(Oc1ccc(CCNC(=O)c2ccc(-c3ccccc3)o2)cc1)C(=O)O	–	inconclusive: 16.9 µM [inhibitor, partial curve]
O=C1C=C(NC2=CC3OC(c4ccccc4)OCC3OC2=O)CCC1 (stereo not given)	inactive: 0.175%	–
Cc1c(C(=O)N2CCC[C@H]2C(N)=O)oc2c(F)cccc12	–	inconclusive: 21.3 µM [inhibitor, partial curve, poor fit]
